# From the supplement of paper PMC7826260
# Some of the results follow. Each Rep nickase domain was tested in vitro on the same pool of single strands (3 µM enzyme, 1 h, 37 °C); shown is the middle of each 90-letter strand. Numbers give uncut DNA relative to the enzyme-free pool, as log2; strong cutting gives strongly negative numbers. There is no active / inactive call. Shares of all reads are compared; uncut strands gain when others are lost, and binding without cutting may add a little.
# Legend:
# Assay in all cases: uncleaved DNA left, log2 of reads against the no-enzyme library (log2 ratio); higher = less cleavage (more negative = more Rep cleavage of the k-mer); sequences stand for … in CTCGTCCG…ACCGGAGA
# [1] = tested on: T1, Rep nickase domain of Muscovy duck circovirus
# T1 sequence (Rep 1-111, printed without the tag): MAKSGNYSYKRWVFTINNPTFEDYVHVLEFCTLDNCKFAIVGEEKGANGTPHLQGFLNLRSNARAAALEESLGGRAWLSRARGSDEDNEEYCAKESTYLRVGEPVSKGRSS
# Protocol: (§1)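 A pool of 90-nt single-stranded DNAs with seven random bases just before the constant AC of the nick site (name = the seven bases) was cut by 3 µM recombinant His6-SUMO-tagged Rep nickase domain (300 nM DNA, 50 mM HEPES pH 8.0, 50 mM NaCl, 1 mM MnCl2, 1 h, 37 °C, three replicates). Uncut DNA was amplified and sequenced.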
# [2] = tested on: T2, Rep nickase domain of banana bunchy top virus
# T2 sequence (Rep 1-94, printed without the tag): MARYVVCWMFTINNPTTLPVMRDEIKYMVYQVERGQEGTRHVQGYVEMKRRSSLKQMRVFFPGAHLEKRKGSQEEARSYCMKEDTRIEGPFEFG
# Protocol: as §1
# [3] = tested on: T3, Rep nickase domain of cabbage leaf curl virus
# T3 sequence (Rep 1-116, printed without the tag): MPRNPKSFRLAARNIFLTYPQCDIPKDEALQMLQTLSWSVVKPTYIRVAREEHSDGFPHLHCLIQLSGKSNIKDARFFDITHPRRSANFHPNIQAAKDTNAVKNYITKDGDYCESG
# Protocol: as §1
# [4] = tested on: T4, Rep nickase domain of chickpea chlorotic dwarf virus
# T4 sequence (Rep 1-124, printed without the tag): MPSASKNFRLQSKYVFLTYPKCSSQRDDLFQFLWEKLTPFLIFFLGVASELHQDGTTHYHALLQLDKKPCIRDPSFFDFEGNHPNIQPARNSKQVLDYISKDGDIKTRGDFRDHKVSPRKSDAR
# Protocol: as §1
# [5] = tested on: T5, Rep nickase domain of faba bean necrotic yellows virus
# T5 sequence (Rep 1-98, printed without the tag): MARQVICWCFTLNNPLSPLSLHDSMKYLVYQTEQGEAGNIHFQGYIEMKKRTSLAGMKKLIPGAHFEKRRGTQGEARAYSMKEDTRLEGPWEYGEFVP
# Protocol: as §1
# [6] = tested on: T6, Rep nickase domain of maize striate mosaic virus
# T6 sequence (Rep 1-117, printed without the tag): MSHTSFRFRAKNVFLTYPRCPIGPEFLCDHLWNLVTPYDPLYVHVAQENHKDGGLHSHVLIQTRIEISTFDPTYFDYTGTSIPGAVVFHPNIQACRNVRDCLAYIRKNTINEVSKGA
# Protocol: as §1
# [7] = tested on: T7, Rep nickase domain of porcine circovirus 2
# T7 sequence (Rep 2-116, printed without the tag): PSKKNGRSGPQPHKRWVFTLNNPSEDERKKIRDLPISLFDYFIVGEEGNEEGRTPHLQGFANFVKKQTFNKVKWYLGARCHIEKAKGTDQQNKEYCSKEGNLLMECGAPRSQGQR
# Protocol: as §1
# [8] = tested on: T8, Rep nickase domain of tomato golden mosaic virus
# T8 sequence (Rep 1-124, printed without the tag): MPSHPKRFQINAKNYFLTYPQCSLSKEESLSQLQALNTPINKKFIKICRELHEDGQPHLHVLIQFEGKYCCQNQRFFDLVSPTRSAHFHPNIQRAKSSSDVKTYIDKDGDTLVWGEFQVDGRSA
# Protocol: as §1
# [9] = tested on: T9, Rep nickase domain of tomato yellow leaf curl virus
# T9 sequence (Rep 1-136, printed without the tag): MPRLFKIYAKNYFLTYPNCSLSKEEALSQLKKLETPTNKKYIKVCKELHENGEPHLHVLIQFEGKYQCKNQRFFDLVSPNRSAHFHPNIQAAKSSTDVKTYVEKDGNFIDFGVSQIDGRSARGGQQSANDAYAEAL
# Protocol: as §1
# [10] = tested on: T10, Rep nickase domain of wheat dwarf virus
# T10 sequence (Rep 1-137, printed without the tag): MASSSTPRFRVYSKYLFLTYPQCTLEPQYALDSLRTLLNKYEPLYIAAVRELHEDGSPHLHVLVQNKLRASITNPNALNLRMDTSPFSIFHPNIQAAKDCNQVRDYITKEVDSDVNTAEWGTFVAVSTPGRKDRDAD
# Protocol: as §1
Sequence,uncleaved DNA left (log2) [1],uncleaved DNA left (log2) [2],uncleaved DNA left (log2) [3],uncleaved DNA left (log2) [4],uncleaved DNA left (log2) [5],uncleaved DNA left (log2) [6],uncleaved DNA left (log2) [7],uncleaved DNA left (log2) [8],uncleaved DNA left (log2) [9],uncleaved DNA left (log2) [10]
TCACGGA,0.0661,0.00828,0.0915,0.277,0.04,-0.0478,0.0978,0.192,-0.0117,0.002
CCGTGCT,-0.536,-0.223,-1.66,-1.69,-0.277,-0.883,-2.75,-0.872,-0.0438,-1.07
GCCACTC,-0.0575,0.029,0.104,0.175,-0.0584,0.106,-0.023,0.0105,0.0796,0.0269
TCAGAAG,0.104,0.145,-0.592,-0.6,0.239,-0.912,0.266,0.0402,0.107,-0.0288
CATGCCT,-0.0579,-0.315,-0.731,-2.69,-0.0102,-1.32,-0.311,-0.199,-0.044,-0.168
TCTACTT,-0.0124,-0.0399,-0.114,-2.69,0.00744,-0.2,-0.622,0.0857,0.0622,-0.132
CCCCATT,-0.168,-0.181,-0.185,-2.02,-0.268,-0.905,-0.432,-0.083,-0.069,-0.124
TACTCCT,-3.36,-2.57,-2.25,-3.17,-0.0959,-0.474,-3.58,-0.257,-0.0882,-0.192
GGGCTTC,0.00894,0.0426,0.745,1.78,0.0413,2.15,0.0996,0.0464,-0.0187,0.0761
TCATACA,0.0533,0.0215,-0.175,-2,0.0532,-0.624,-0.191,-0.0327,0.0624,0.00137
GCTGAAG,-0.0403,-0.0467,-0.632,-0.491,0.0638,-1.04,0.0869,0.00874,-0.0193,-0.107
GCCATGT,-0.0157,-0.0059,-0.121,0.0691,-0.123,-0.576,0.0599,-0.126,0.0786,0.0144
TGCCTGA,0.135,-0.0263,0.208,0.544,0.164,0.797,0.173,0.139,0.0663,0.171
AAGCCTG,0.0589,0.032,0.238,1.24,0.032,1.74,0.143,0.0881,-0.0758,0.0126
ATCCAAA,-0.0908,-0.0324,-0.0172,-0.0321,0.0737,-0.656,0.0686,0.0558,-0.0774,0.116
GGAGGGA,0.148,0.199,0.755,1.41,0.131,1.5,0.259,0.181,0.039,0.175
CTACATG,0.0153,-0.0406,-0.806,-1.07,-0.0941,-1.14,0.0259,-0.0469,-0.13,-0.195
ACGGCCG,-0.0584,-0.0814,-0.891,-0.402,-0.0811,-0.927,0.0331,-0.098,-0.167,-0.116
TGTAACT,0.0883,0.161,0.162,-1.45,0.0628,1.06,-0.282,0.166,0.153,0.238
CGAGCAC,-0.129,-0.0862,0.108,0.427,-0.0605,0.633,-0.228,-0.0668,-0.0394,0.0585
CACGTTG,0.0404,0.00154,-0.372,-0.392,-0.0974,-0.724,0.0736,0.0102,0.0345,-0.247
ACGGCCC,-0.0778,0.0439,-0.0615,0.138,-0.0702,-0.0606,-0.0294,0.0591,0.00511,-0.227
TTACATT,0.0492,0.0293,-0.155,-2.13,0.0947,0.594,-0.0921,-0.0309,0.123,-0.0577
ATCCCCC,-0.198,-0.0373,-0.0666,-0.115,-0.181,-0.276,-0.139,-0.241,-0.153,-0.111
CGTCCTC,0.00521,0.0533,0.17,0.339,-0.0117,0.289,0.0744,0.0651,0.0893,0.175
TGCACGG,0.027,0.141,0.49,1.47,-0.00567,2.01,0.0612,0.0441,-0.0567,0.173
ATACCAA,0.0546,-0.00577,0.00445,0.0117,0.0493,-0.0145,0.0761,-0.0671,0.0579,0.0615
GTACATT,0.0743,0.00162,0.598,1.53,0.0534,2.04,0.0794,-0.157,0.0607,0.202
AGGGCGC,-0.0646,0.0919,-0.353,-0.152,-0.0102,-0.445,0.2,0.0867,-0.00173,-0.0966
GTAAAGT,0.103,0.0398,0.233,0.773,-0.00346,1.41,0.148,0.0156,0.0856,0.0905
